# Measurements published in PubChem BioAssay AID485367 (National Center for Advancing Translational Sciences (NCATS), 2010).
# Hit rate of the full screen: of about 330,000 compounds, about 560 (0.17%) were called active. Inconclusive results, whose numbers are uncertain, are shown with a selection of clear calls. Calls follow the shape of the dose curve; as a rule, active = well fitted inhibition curve with a large enough effect; inconclusive = small, poorly fitted or top-dose-only effect, or effect the other way; inactive = flat fitted curve, though single readings scatter. Potencies of inconclusive entries are left out as doubtful fits.
# Biological target: ATP-dependent 6-phosphofructokinase (Trypanosoma brucei brucei) (UniProt O15648)
# UniProt O15648, sequence (O15648 whole entry, looked up): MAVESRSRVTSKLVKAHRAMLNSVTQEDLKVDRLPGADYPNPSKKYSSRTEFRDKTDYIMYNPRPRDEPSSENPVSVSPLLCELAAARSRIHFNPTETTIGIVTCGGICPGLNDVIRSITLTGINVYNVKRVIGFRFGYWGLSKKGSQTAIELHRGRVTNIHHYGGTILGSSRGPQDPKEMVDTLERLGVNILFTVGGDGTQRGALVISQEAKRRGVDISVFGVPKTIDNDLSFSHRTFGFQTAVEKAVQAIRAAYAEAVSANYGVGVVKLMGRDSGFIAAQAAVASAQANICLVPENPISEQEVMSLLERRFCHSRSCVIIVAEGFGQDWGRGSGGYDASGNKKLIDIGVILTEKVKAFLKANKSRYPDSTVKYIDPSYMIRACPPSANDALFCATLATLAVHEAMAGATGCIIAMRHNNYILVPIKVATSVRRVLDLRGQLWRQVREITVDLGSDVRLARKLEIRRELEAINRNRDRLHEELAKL
# Assay: qHTS Assay to Find Inhibitors of T. brucei phosphofructokinase; also: nearly all actives have a fitted effect of over 60% in size;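 as to activity, negative = inhibition: 0% = uninhibited 1x PFK enzyme wells and -100% = no-enzyme wells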
# Conditions: T. brucei PFK, ADP-Glo luminescence; activity, negative = inhibition: at 57.5 µM (top of the series)
# In short: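 Activity is normalized to no-enzyme wells (full inhibition) and 1.25 nM enzyme wells (no inhibition). Reaction: 0.5 mM F6P, 0.1 mM ATP, 45 min RT, ADP-Glo luminescence; concentration-response curves fitted and classed by quality.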
# Potency is read from the fitted curve at half-maximal effect; tags tell the direction and shape of the fitted curve.
Structure (SMILES),Potency,"activity, negative = inhibition"
Clc1ccc(CNc2cnccn2)cc1Cl,active: 6.75 µM,
CCc1nnc(NC(=O)CSc2sc3c(O)cc(=O)[nH]c3c2C#N)s1,"inconclusive [falling, full curve, poor fit]",
O=C(NCc1ccc(F)cc1)C1CCN(S(=O)(=O)N2CCCC2)CC1,,inactive: -5.52%
Cc1cc(C)c(N=C2SCC(=O)N2Cc2ccco2)c(C)c1,,inactive: 0.915%
COc1cc2c(c(OC)c1OC)-c1ccc(NC(=O)c3ccc(F)cc3)c(=O)cc1[C@@H](NC(C)=O)CC2,"inconclusive [activator, partial curve]",
CCc1cc(=O)oc2cc(C)c(CN3CCCC(C)C3)c(O)c12 (configuration not stated),"inconclusive [falling, full curve]",
O=C(COC(=O)Cc1ccc(Cl)c(Cl)c1)Nc1ccc2[nH]c(=O)[nH]c2c1,active: 21.3 µM,
CCc1cc(C(=O)Nc2cc(S(=O)(=O)N(CC)CC)ccc2N2CCN(C)CC2)sc1C,"inconclusive [activator, single point]",
O=C(CC(NC(=O)C(F)(F)F)c1ccccc1)Nc1nnc(CCc2ccccc2)s1 (configuration not stated),"inconclusive [falling, full curve, poor fit]",
COC(=O)c1cn[nH]c1NC(=S)Nc1ccc(Cl)c(Cl)c1,"inconclusive [falling, single point]",
C#CCOCCOCCOCCNc1nc(N2CCN(C(=O)[C@H](CCCCN)n3cc([C@@H](N)C(C)CC)nn3)CC2)nc(N2CCN(C(=O)[C@H](CCCCN)n3cc([C@@H](N)CO)nn3)CC2)n1 (some centres not stated),"inconclusive [falling, partial curve]",
CCOc1ccc(CCNC(=O)c2nn(C)c3c2CS(=O)(=O)c2ccccc2-3)cc1OCC,,inactive: 1.83%
CCOc1ccccc1NC(=O)CSc1nnnn1Cc1ccccc1,"inconclusive [falling, single point]",
Cc1occc1C(=O)NCc1cccc(CNC(=O)c2ccoc2C)c1,"inconclusive [falling, single point]",
Cc1ccc(NNC(N)=S)cc1Cl,"inconclusive [falling, single point]",
CSc1nnc(-c2ccco2)c(-c2ccco2)n1,"inconclusive [falling, single point]",
CC(C)N(CCc1ccncc1)C(=O)Nc1ccc(Cl)c(Cl)c1,"inconclusive [falling, partial curve]",
O=C(NC(=S)Nc1ccc(NC(=O)c2cccs2)cc1)c1cc2ccccc2o1,"inconclusive [falling, single point]",
NC(=O)CSc1nnc(NC(=O)c2ccc3ccccc3c2)s1,"inconclusive [activator, single point]",
COc1cccc(C(=O)CC(=O)C(=O)Nc2cccc([N+](=O)[O-])c2C)c1,"inconclusive [falling, single point]",
CN(C)c1ncnc2c1ncn2C1OC(CO)C(O)C1O (configuration not stated),,inactive: -5.22%
O=[N+]([O-])c1ccc(CSc2ncnc3c2ncn3[C@@H]2O[C@H](CO)[C@@H](O)[C@H]2O)cc1,"inconclusive [falling, partial curve]",
O=C(N/N=C/c1cccnc1)c1ccc(NC(=O)c2cccc(Cl)c2)cc1,"inconclusive [activator, single point]",
COCc1[nH]nc2c1C(c1ccccc1OC)C(C#N)=C(N)O2 (configuration not stated),"inconclusive [activator, single point]",

Structure (SMILES),Potency,"activity, negative = inhibition"
Cc1c(OCC(=O)N2CCN(c3ccccc3)CC2)ccc2c3c(c(=O)oc12)CCCC3,,inactive: 2.51%
O=[N+]([O-])c1cccn2cc(-c3ccc(Br)cc3)nc12,"inconclusive [falling, partial curve]",
Cc1cccn2cc(CNC(=O)c3ccc(Br)o3)nc12,"inconclusive [falling, single point]",
Cc1cc(N(C)C)ccc1[N+](=O)[O-],"inconclusive [falling, partial curve]",
CC(NC(=O)c1ccc(Cn2cc([N+](=O)[O-])cn2)cc1)c1ccccc1 (configuration not stated),"inconclusive [falling, single point]",
Cc1nc(SCc2ccc(Cl)c(Cl)c2)n[nH]1,active: 21.3 µM,
O=C(Nc1sc2c(c1C(=O)NCc1cccnc1)CCCC2)c1ccco1,,inactive: 0%
COc1ccc(Nc2nc(C)cc(=O)[nH]2)cc1,active: 12 µM,
CCOc1ccc(/C=C/C(=O)c2ccc(-c3ccccc3)cc2)cc1,,inactive: 3.73%
Cc1c(C(=O)NCc2cccnc2)sc2nc(-c3ccc(F)cc3)cn12,"inconclusive [falling, single point]",
CN(C)C(=O)C#Cc1ccccc1,,inactive: -3.64%
O=S(=O)(c1cccc(-c2n[nH]c(=S)n2-c2ccc(OC(F)(F)F)cc2)c1)N1CCOCC1,"inconclusive [falling, full curve, poor fit]",
CC(C)CN(C(=O)CSc1nnc2c(Cl)cc(C(F)(F)F)cn12)C1CCS(=O)(=O)C1 (configuration not stated),,inactive: 1.18%
O=C(Nc1cc(S(=O)(=O)N2CCOCC2)ccc1N1CCCC1)c1ccc(Cl)cc1,"inconclusive [falling, full curve]",
CCC(=O)Nc1ccc(C(=O)Nc2ccc(Br)cc2F)cc1,"inconclusive [falling, single point]",
CC(C)(C)n1ncc2c(=O)n(CC(=O)NCc3ccccc3Cl)cnc21,"inconclusive [falling, partial curve]",
O=C(O)c1cccc(S(=O)(=O)Nc2ccc3oc(=O)sc3c2)c1,"inconclusive [activator, partial curve]",
COc1ccc(NS(=O)(=O)c2ccc(N3CCCC3)c(NC(=S)Nc3cccc(S(=O)(=O)N(C)C)c3)c2)cc1,"inconclusive [falling, full curve, poor fit]",
Cc1ccc(CSc2nnc(SCC(=O)N/N=C/C=C/c3ccco3)s2)cc1,"inconclusive [falling, single point]",
O=C(O)c1cc(N2N=C(C(F)(F)F)/C(=C/C=C/c3ccco3)C2=O)ccc1Cl,active: 16.9 µM,
O=C(Nc1ccc(Cl)cc1)Nc1cccnc1,active: 16.9 µM,
O=C(/C=C/c1ccccc1[N+](=O)[O-])NNC(=O)c1ccncc1,"inconclusive [activator, single point]",
O=C1C=C(NCc2ccc(Cl)cc2Cl)C2(CCCCC2)O1,active: 10.7 µM,
COc1ccc(NC(=O)CN(C)C(=O)c2cc3c(s2)CCC3)cc1,"inconclusive [falling, full curve]",

Structure (SMILES),Potency,"activity, negative = inhibition"
COc1ccc(CCNc2oc(COc3ccc(Br)cc3)nc2C#N)cc1OC,,inactive: -0.744%
c1ccc(C(c2nnnn2Cc2ccco2)N2CCN(c3nc4ccccc4s3)CC2)cc1 (configuration not stated),,inactive: 6.02%
CCC1=Nc2cc(C(=O)O)ccc2Sc2ccccc21,,inactive: -2.33%
Cc1cc(C)nc(SCC(=O)Nc2ncc(Cc3ccc(Cl)c(Cl)c3)s2)n1,"inconclusive [falling, single point]",
CSc1nnc(C)c(=O)n1COC(=O)COc1ccc(F)cc1,"inconclusive [falling, single point]",
Cc1ccc(Cl)cc1N1CCN(S(=O)(=O)c2cccc(S(=O)(=O)N3CCCC3)c2)CC1,"inconclusive [activator, single point]",
COCCNC(=O)/C(=C/c1ccccc1Cl)c1ccccc1,"inconclusive [falling, single point]",
CC1CC1C(=O)OCC(=O)Nc1ccc2[nH]c(=O)[nH]c2c1 (configuration not stated),"inconclusive [falling, single point]",
Cn1ncc(SCc2ccccc2)c(Cl)c1=O,,inactive: 1.99%
CCN(CC)CCNC(=O)c1ccc(NC(=O)C2CCN(c3ncnc4sc(C)c(C)c34)CC2)cc1,"inconclusive [falling, single point]",
CC(=O)Nc1cc(NC(C)=O)cc(C(=O)N2CCCC3CCCCC32)c1 (configuration not stated),"inconclusive [falling, single point]",
CCOc1c(Cl)cc(CNc2ccc(N3CCCC3)cc2)cc1OC,,inactive: -1.96%
N#CC(C#N)=C1C(=O)N(CCN2CCCCC2)c2ccccc21,,inactive: -12.4%
COc1ccc(C(=O)N/N=C/c2c(C)[nH]c(=O)[nH]c2=O)cc1,,inactive: -3.6%
OCCNC(=S)Nc1ccc(Cl)c(Cl)c1,"inconclusive [falling, partial curve]",
COc1ccc(OC)c(-n2c(-c3cccc(O)c3)n[nH]c2=S)c1,"inconclusive [falling, partial curve]",
Cc1ccc(N=Nc2c(=O)[nH]n3c(=O)cc(C)[nH]c23)cc1,"inconclusive [activator, partial curve]",
C=C(C(=O)c1ccccc1)C(C(=C)C(=O)c1ccccc1)c1ccc(OC)cc1,,inactive: -0.56%
COc1cc(/C=C/c2sc3ccccc3[n+]2CCCS(=O)(=O)[O-])ccc1O,active: 12 µM,
NC(=O)CNC(=O)C1CCCc2c1[nH]c1ccc(Cl)cc21 (configuration not stated),active: 6.01 µM,
CCc1cccc(NC(=O)CCCn2nc(C)c3c(C)n(-c4ccccc4)nc3c2=O)c1,,inactive: -6.25%
Cc1cc(-c2ccccc2)n(-c2cc(N/N=C/c3ccccc3O)ncn2)n1,"inconclusive [falling, single point]",
COc1cc(OC)c(C(=O)O/N=C(\N)c2ccccc2)cc1OC,,inactive: 2.77%
CC1NC(=O)NC1CCCCCC(=O)Nc1ccc(F)c(Cl)c1 (configuration not stated),"inconclusive [falling, single point]",
